# Laboratory results from ChEMBL document CHEMBL5606460, “ASAP - DENV-2 NS2B-NS3 protease fluorescence single point” (2024).
# Screen size: about 2,000 compounds; about 110 (5.5%) showed an effect of 50% or more. This is one part of the list.
# Molecular target: Genome polyprotein (dengue virus type 2) (UniProt P29990)
# [1] = Thailand/16681/1984, Concentration 25.0 uM, Number of replicates 1.0
smiles,measurement,setting,value
O=C(NCC1(c2ccncc2F)CCC1)[C@@]1(c2ccc(F)cc2)CCCNC1,inhibition,"Thailand/16681/1984, Concentration 49.5 uM, Number of replicates 2.0, Standard deviation 0.9074685157350926 %",-2.89%
same,inhibition,"Thailand/16681/1984, Concentration 99.01 uM, Number of replicates 2.0, Standard deviation 1.7740222143666056 %",-1.32%
same,inhibition,"Thailand/16681/1984, Concentration 198.0 uM, Number of replicates 2.0, Standard deviation 1.670161679604597 %",-0.296%
c1cnc2c(C3CCN(Cc4c[nH]c5ncccc45)CC3)c[nH]c2c1,inhibition,"Thailand/16681/1984, Concentration 49.5 uM, Number of replicates 2.0, Standard deviation 3.423355938229839 %",-2.72%
same,inhibition,"Thailand/16681/1984, Concentration 99.01 uM, Number of replicates 2.0, Standard deviation 3.579980033617295 %",-0.872%
same,inhibition,"Thailand/16681/1984, Concentration 198.0 uM, Number of replicates 2.0, Standard deviation 3.0314759737683956 %",1.53%
CCCC[C@H](NC(C)=O)C(=O)N[C@H](C(=O)Nc1ccc(C(N)=O)cc1)c1ccc(OCc2ccccc2)cc1,inhibition,"Thailand/16681/1984, Concentration 49.5 uM, Number of replicates 2.0, Standard deviation 2.073896751762033 %",-0.623%
same,inhibition,"Thailand/16681/1984, Concentration 99.01 uM, Number of replicates 2.0, Standard deviation 0.38726109133313447 %",4.02%
same,inhibition,"Thailand/16681/1984, Concentration 198.0 uM, Number of replicates 2.0, Standard deviation 0.14852549415239058 %",23%
c1cnc2c(C3CCN(Cc4cnn5ccccc45)CC3)c[nH]c2c1,inhibition,"Thailand/16681/1984, Concentration 49.5 uM, Number of replicates 2.0, Standard deviation 1.316281988110152 %",-4.72%
same,inhibition,"Thailand/16681/1984, Concentration 99.01 uM, Number of replicates 2.0, Standard deviation 2.2605015442223797 %",-3.44%
same,inhibition,"Thailand/16681/1984, Concentration 198.0 uM, Number of replicates 2.0, Standard deviation 0.9691516929362414 %",-2.08%
O=C(NC[C@H]1CCCO1)c1cc(Cl)ccc1NS(=O)(=O)c1ccc(Oc2ccccc2Cl)cc1,inhibition,"Thailand/16681/1984, Concentration 49.5 uM, Number of replicates 2.0, Standard deviation 0.11391652520397291 %",86.2%
same,inhibition,"Thailand/16681/1984, Concentration 99.01 uM, Number of replicates 2.0, Standard deviation 0.06140357500812747 %",84.7%
same,inhibition,"Thailand/16681/1984, Concentration 198.0 uM, Number of replicates 2.0, Standard deviation 0.13037604965923533 %",79.4%
O=Cc1ccc(N2CCC(C(=O)NC3CCN(Cc4ccccc4)CC3)CC2)cc1,inhibition,[1],14.8%
NCc1cccc(NC(=O)[C@@H](NC(=O)OCc2ccccc2)C2CCCCC2)c1,inhibition,"Thailand/16681/1984, Concentration 49.5 uM, Number of replicates 2.0, Standard deviation 3.75421470496627 %",-3.1%
same,inhibition,"Thailand/16681/1984, Concentration 99.01 uM, Number of replicates 2.0, Standard deviation 3.4431804249233626 %",-1.76%
same,inhibition,"Thailand/16681/1984, Concentration 198.0 uM, Number of replicates 2.0, Standard deviation 6.458747607105988 %",79.9%
COc1cccc(CCNC(=O)C2CCN(c3ccc(C=O)cc3)CC2)c1OC,inhibition,[1],13.5%
Cc1cc(N)c2cccc(Br)c2n1,inhibition,"Thailand/16681/1984, Concentration 49.95 uM, Number of replicates 2.0, Standard deviation 5.849609152234285 %",-8.02%
same,inhibition,"Thailand/16681/1984, Concentration 99.9 uM, Number of replicates 2.0, Standard deviation 5.75747614138947 %",-7.97%
Cc1ccc(CNC(=O)c2cc(Cl)ccc2NS(=O)(=O)c2ccc(Oc3ccccc3Cl)cc2)s1,inhibition,"Thailand/16681/1984, Concentration 49.5 uM, Number of replicates 2.0, Standard deviation 0.032039697063193553 %",83.2%
same,inhibition,"Thailand/16681/1984, Concentration 99.01 uM, Number of replicates 2.0, Standard deviation 0.20602188771616411 %",78.6%
same,inhibition,"Thailand/16681/1984, Concentration 198.0 uM, Number of replicates 2.0, Standard deviation 0.539307027447943 %",69.5%
CCS(=O)(=O)c1ccc(CNC(=O)C2CCN(c3ccc(C=O)cc3)CC2)cc1,inhibition,[1],12.3%
Cc1c(Cl)ccc(CNCc2nnc3ccccn23)c1O,inhibition,"Thailand/16681/1984, Concentration 49.5 uM, Number of replicates 2.0, Standard deviation 5.8955051683861095 %",4.07%
same,inhibition,"Thailand/16681/1984, Concentration 99.01 uM, Number of replicates 2.0, Standard deviation 2.4910858987542683 %",2.66%
same,inhibition,"Thailand/16681/1984, Concentration 198.0 uM, Number of replicates 2.0, Standard deviation 4.912359631194546 %",4.41%
